From the supplement of paper PMC10126150
Values marked as one replicate rest on one cluster of the flow cell; about a third of the high ones do not repeat.

Tested on: ATP
Test: switch fluorescence ratio, 500 uM ATP over buffer (Cy3 cluster intensity, sum of 5 cycles each) (fold (ratio)); higher = stronger signal-on switching upon ATP binding; sequences stand for … in TCGTCGGCAGCGTCAGATGTGTATAAGAGACAGTTTTTTTTTTTTTTTTTTTTTTTTT…TC
Conditions: aptamer strand: ATP DNA aptamer (quencher-CACCTGGGGGAGTATTGCGGAGGAAGG + anchor), 100 nM annealed; ATP concentration: 500 uM; one replicate
How it was run: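 Cy3-labelled switching-strand clusters on a modified Illumina MiSeq flow-cell were annealed to 100 nM quencher-labelled ATP aptamer and imaged first in selection buffer, then after 15 min with 500 uM ATP at 22 °C. NaOH stripping and re-annealing separated each of five buffer/ATP cycles, and clusters outside 100-1000 RFU were excluded. The fluorescence ratio sums target-cycle Cy3 intensity over buffer-cycle Cy3 intensity per cluster and averages it per switch-domain sequence.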
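Note: ATP exposure 15 min at 22 °C before imaging.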

Row | Sequence | switch fluorescence ratio
1 | ACGTTACCCT | 1.56
2 | ATCATATAGG | 1.02
3 | GGGTCTACTG | 1.06
4 | GAGTAATCTA | 0.993
5 | TTAGGTTGTG | 0.989
6 | CTTCACCATT | 0.998
7 | ATTACATGGC | 0.952
8 | TCCACGAGGG | 1.09
9 | TGTGCAATG | 5.75
10 | GATGAACAGC | 0.948
11 | AGGTGACCTT | 1.06
12 | TATAATAGGG | 0.957
13 | AAAAATTCGG | 0.92
14 | GCTCGCATGG | 1.38
15 | CCCAGATAGG | 1.03
16 | TGGAGTGGTC | 1.06
17 | GGATAGGCGG | 1.06
18 | ATCGGGGAGC | 1
19 | CCTGGCCTGT | 0.972
20 | GAAAACACGT | 1
21 | TAGCATTGG | 2.01
22 | TCATACAGGG | 1.02
23 | TAATTCGCTG | 1.04

Row | Sequence | switch fluorescence ratio
24 | CCCCCTAAAT | 1.88
25 | TTGGCGTACC | 1.04
26 | TAACAGTATC | 1.06
27 | AATGGGCCGT | 0.973
28 | AATATTATGT | 1.04
29 | AAGTTTCCGG | 0.973
30 | CGAACGTTGC | 2.82
31 | GTATAAATTA | 1.01
32 | ATGTGCGCTC | 1.01
33 | TATTCATGAT | 0.957
34 | CTTACCTGT | 1
35 | GCACCGTGGC | 1.02
36 | TCGATGACCC | 1.06
37 | AGAAGCTGCG | 1.01
38 | GCTGAAAACG | 1.02
39 | AATTATAAC | 0.989
40 | TATTTGGCCC | 0.914
41 | TGAGGGTCA | 0.994
42 | CAATCGC | 1.1
43 | GGGGTGTGCA | 0.993
44 | TGGGCGTTC | 1.07
45 | TATATCTCGC | 1.03
46 | ATGGGCCTCC | 1.02

Row | Sequence | switch fluorescence ratio
47 | GTAGATGCCC | 0.977
48 | TTTTCAGAGA | 0.977
49 | CGGATTTGCA | 0.999
50 | TGGTGACGAG | 1.03
51 | AGCAAGATAA | 1.12
52 | CAGGAAAGTT | 1.03
53 | CCTTGGAAAG | 1.02
54 | AAAAAGTAAC | 1.03
55 | GTAGGCCGGT | 1.01
56 | CGACAAACTA | 1.12
57 | AAGCGCGTAC | 1.6
58 | ATGTAACATA | 0.985
59 | AGGTGCAGA | 0.998
60 | TTATATGATA | 1.02
61 | GCGAAAATTA | 1
62 | AGATATAGAC | 1.05
63 | AGGTGGTAT | 0.977
64 | TAAAGGGGT | 0.993
65 | TGGGTGCTAC | 1.14
66 | GGGCCTCACA | 0.986
67 | AGTCTATGGG | 0.983
68 | GAAAATTAGA | 0.995
69 | GCTCTAAAGG | 1.04

Row | Sequence | switch fluorescence ratio
70 | CTTAGTTAGG | 1
71 | TATGGAGTAG | 0.96
72 | GCGATACGTC | 1.65
73 | CATCGTTAAT | 1.16
74 | CCCTGGATTT | 0.982
75 | ATTGGAGGT | 1
76 | CCTGTTCAGT | 1
77 | GCCTGCACTT | 0.971
78 | AAAAGCCTTT | 1.04
79 | TCCCTTTCGT | 0.996
80 | TTGCGTACCA | 1.01
81 | TATCACTCGA | 1.03
82 | CGCTTTAAAT | 1
83 | AGGTGCCATC | 0.957
84 | TAGAGAAAG | 0.998
85 | TTTCCACATT | 1
86 | CGGGAGCCAT | 0.991
87 | TCGGTCGCAT | 1.03
88 | AGGATTTGCA | 1.03
89 | AGGTATCGTA | 0.987
90 | TCCCCGGGAA | 0.996
91 | CGAGGTTAGC | 1.01
92 | TAGGGTTCGG | 1.01

Row | Sequence | switch fluorescence ratio
93 | ACGGAAGCGA | 0.977
94 | GCCCTGGAGG | 1.24
95 | ACGGAGGTGT | 1.09
96 | ATCAGGTAGT | 1.03
97 | GTTTCCCTCT | 0.987
98 | ATTGGGTGTA | 1.02
99 | GGCAGGTGGC | 1.09
100 | TTCCCTTAA | 0.998
101 | AGGGGGAGCG | 1.06
102 | TGGGACAAAG | 0.998
103 | ATTCGCCTTT | 0.985
104 | ATGGTTGAGA | 0.989
105 | TCTTGGTTGT | 0.979
106 | CAGTCATCAA | 1.02
107 | TTGAAGACTT | 1.02
108 | CGGAGGCGCA | 1
109 | GTGATCAATA | 0.981
110 | ACCAGTCCAT | 1.04
111 | TCTGATGCTC | 1.41
112 | GCGACCGGTG | 1.58
113 | TGCTAAGAT | 0.962
114 | GTTAAACTGC | 0.912
115 | TGTGGATTAG | 0.936

Row | Sequence | switch fluorescence ratio
116 | GGCGTATCTG | 1.01
117 | GCCCGCGCAG | 1.01
118 | CATTCTAAAA | 1.01
119 | AGAAATAAAT | 0.963
120 | GCTACTTAGA | 1.07
121 | ACGCGGGGCC | 1.05
122 | AAGCTATGGA | 1
123 | ACCCCGTGGA | 1.03
124 | TTAAATGCTT | 0.997
125 | GGCTATGTAA | 0.986
126 | GCCTGATACG | 1.14
127 | CGGAAGTTAA | 0.979
128 | CCAAACATTC | 1.09
129 | CACAGAAACC | 1.12
130 | TGTAAGGGGA | 1.01
131 | ACATAATTCA | 1.03
132 | TGAATGGGA | 1.01
133 | ACAGTGCTTG | 1.03
134 | CTATCTGAGT | 1.01
135 | TCAATGTTC | 0.954
136 | ATCGTTAATC | 1.01
137 | ACATGGAATG | 1.01
138 | GGTAGGACTT | 0.999

Row | Sequence | switch fluorescence ratio
139 | TGTATCACCG | 0.969
140 | ATGAACCATA | 0.996
141 | TTGCCGGTGT | 1.07
142 | GTCGGGCGTG | 1.03
143 | GTCGACATTG | 1.01
144 | TCTATCACCT | 1.15
145 | GGTGCCAGCA | 1.02
146 | GGACTTGGAA | 0.953
147 | CATCAGAGAG | 1
148 | AGTTATTGTT | 0.981
149 | TGTTCGCCGG | 1.02
150 | TTATAGACGC | 1.06
151 | GCTGCAAGTC | 1.27
152 | TCAATGCGGA | 0.998
153 | TTAGGCATTT | 1.07
154 | AGAACGCATA | 2.26
155 | AGGGCTCTT | 0.943
156 | ACACGGAGGG | 1.02
157 | CATAATGGAA | 0.952
